According to PubChem BioAssay AID445 (National Center for Advancing Translational Sciences (NCATS), 2006):
The campaign covered roughly 110,000 compounds. About 40 (0.04%) were called active. This list was built around the results that the source calls inconclusive (neither active nor inactive); the mix of calls is not that of the screen. Calls follow the shape of the dose curve; as a rule, active = well fitted curve in the direction sought with a large enough effect in the signal ratio (not every such curve was filed as active); inconclusive = small, poorly fitted or top-dose-only effect, or a change in a side signal; inactive = flat fitted curve, though single readings scatter; the % refers to the signal ratio. Potencies beside an inconclusive call are fits to weak or partial responses and may not hold up.

assay: IkB Signaling; settings: ABC-DLBCL IkBa-CBG/CBR dual luciferase ratio (green luciferase fused to IkBa over red control in OCI-Ly3 lymphoma cells), 4 h; IkBa stabilization activation: at 57.1 µM (top of the series), scaled: untreated 0%, proteasome inhibitor 100% unless noted;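 as to IkBa stabilization activation: 0% = basal untreated cells and 100% = reference inhibitor full response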
How it was run: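 In this assay, an IκBα–CBG68 fusion accumulates when IKK-driven degradation is blocked; native CBR normalizes for cell number. OCI-Ly3 cells were treated 4 h with compound and doxycycline, then green and red light read after Chroma-Glo addition.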
Potency is read from the fitted curve at half-maximal effect.

Row | SMILES | Potency | IkBa stabilization activation
1 | Oc1c(CN2CCc3ccccc3C2)cc(Cl)c2cccnc12 | inconclusive: 1.26 µM [rising, full curve] | –
2 | N#CCCn1c(=O)c(-c2cc(F)cc(F)c2)nc2cnc(Oc3cccc(Cl)c3)nc21 | – | inactive: 1.93% [at 11.4 µM, scaled: untreated 0%, proteasome inhibitor 100%]
3 | CNCC[C@H](Oc1ccc(C(F)(F)F)cc1)c1ccccc1 | – | inconclusive: 0.235% [signal inhibitor]
4 | O=C(NCc1ccc(F)cc1)c1ccc2c(c1)nnn2C1CCCC1 | – | inconclusive: 1.96% [signal inhibitor]
5 | COc1ccc(N2C(=O)CS(=O)(=O)C23C(=O)N(Cc2ccc(C)cc2)c2ccccc23)cc1Cl (configuration not stated) | – | inconclusive: -3.68% [signal inhibitor]
6 | COc1cccc(Nc2ncc3nc(C)c(=O)n(C[C@H]4CCCO4)c3n2)c1 | – | inactive: -4.11% [at 11.4 µM, scaled: untreated 0%, proteasome inhibitor 100%]
7 | C/C=C/c1ccc(OCCCCN2C(=O)NC(C)(C)C2=O)c(OC)c1 | – | inactive
8 | CCOC(=O)c1c(-c2ccccc2)csc1NC(=O)c1nn(CC)cc1Br | – | inconclusive: 0.174% [signal inhibitor]
9 | COc1ccc(-c2cc(C)no2)cc1S(=O)(=O)N1CCN(c2ccccc2F)CC1 | – | inconclusive: 1.51% [signal inhibitor]
10 | COc1ncc2nc(-c3ccc(F)cc3)c(=O)n(-c3ccccc3)c2n1 | – | inactive: 0.146% [at 11.4 µM, scaled: untreated 0%, proteasome inhibitor 100%]
11 | COc1ccc(CCNc2nc3c(-c4cccc(F)c4)nnn3c3ccccc23)cc1OC | inconclusive: 1.58 µM [signal inhibitor] | –
12 | Cn1c(CSc2nnc(SCc3ccccc3)s2)nc2ccccc21 | – | inconclusive: 3.82% [signal inhibitor]
13 | CC1CCN(c2nc3c(S(=O)(=O)c4ccc(Cl)cc4)nnn3c3ccsc23)CC1 | – | inconclusive: 0.616% [signal inhibitor]
14 | Cc1onc(-c2c(Cl)cccc2Cl)c1C(=O)NCc1ccco1 | inconclusive: 31.6 µM [signal inhibitor, single point] | –
15 | O=C(CN1C(=O)CSC1=O)Nc1ccc(N2CCOCC2)cc1 | – | inactive
16 | Cc1ccccc1NC(=O)CSc1cn(CC(=O)N(C(C)C)C(C)C)c2ccccc12 | – | inconclusive: 0.968% [signal inhibitor]
17 | CCc1ccccc1NC(=O)c1ccc(CN2C(=O)CCn3nc(C)cc32)cc1 | – | inconclusive: 0.324% [signal inhibitor]
18 | CC(=O)c1ccc(NC(=O)c2nc(-c3ccc(C)cc3)n3c2CCCCC3)cc1 | inconclusive: 0.316 µM [signal inhibitor, full curve] | –
19 | COc1ccc2nc(Nc3nc(C)c(CCC(C)C)c(=O)[nH]3)nc(C)c2c1 | – | inactive
20 | COc1ccc(CNc2nc3ccccc3c3nc(-c4ccccc4)nn23)cc1 | – | inconclusive: -0.437% [signal inhibitor]
21 | O=C(O)[C@@H]1[C@@H]2C[C@@H]3[C@@H](OC(=O)[C@@H]31)[C@H]2Br | – | inactive: 0.427% [at 11.4 µM, scaled: untreated 0%, proteasome inhibitor 100%]
22 | Cc1nn(-c2ccccc2)c2sc(-c3n[nH]c(=S)o3)cc12 | – | inconclusive: 1.48% [signal inhibitor]
23 | Cc1ccccc1OCC(=O)Nc1ccc2nc(SCc3ccccc3)sc2c1 | – | inactive

Row | SMILES | Potency | IkBa stabilization activation
24 | COc1ccc(OCC(=O)NC2CC(=O)N(c3ccc4c(c3)OCCO4)C2)cc1 (configuration not stated) | – | inactive
25 | CCc1ccc(NS(=O)(=O)c2c(C)nc3sc(CC)nn3c2=O)cc1 | – | inconclusive: 0.0392% [signal inhibitor]
26 | O=C(C1CCCCC1)N1CCCC(c2nc3c(nnn3Cc3ccccc3)c(=O)[nH]2)C1 (configuration not stated) | – | inactive
27 | CCC1CCCCN1C(=O)CSc1nnc(-c2ccc3c(c2)OCCO3)o1 (configuration not stated) | – | inconclusive: 1.05% [signal inhibitor]
28 | Cc1ccc(CSc2oc(-c3cccs3)nc2S(=O)(=O)c2ccccc2)cc1 | – | inconclusive: -4.46% [signal inhibitor]
29 | CCOC(=O)c1cc(C)[nH]c(=S)c1C#N | – | inactive
30 | COc1ccc(CCNC(=O)Cc2c(C)c3c(cc(C)c4c(C)c(C)oc43)oc2=O)cc1 | – | inactive
31 | CCOC(=O)N1CCc2c(sc3c2c(=O)n(Cc2ccccc2)c(=O)n3Cc2ccccc2Cl)C1 | – | inconclusive: 0.556% [signal inhibitor]
32 | O=C(NCc1ccco1)C1CCCN(S(=O)(=O)c2ccc(-n3cnnn3)cc2)C1 (configuration not stated) | – | inactive
33 | Cc1c(NC(=O)c2cc(-c3cccc(O)c3)on2)c(=O)n(-c2ccccc2)n1C | inconclusive: 20 µM [signal inhibitor] | –
34 | COc1cccc(NC(=O)C2CCN(c3nnc(C)c4c(C)n(-c5ccccc5)nc34)CC2)c1 | – | inconclusive: 2.83% [signal inhibitor]
35 | Cc1ccc(S(=O)(=O)N(CC(=O)NCCc2ccc(Cl)cc2)c2ccccc2C)cc1 | – | inconclusive: 9.48% [signal inhibitor]
36 | COc1ccc(CCNC(=O)c2cnn(-c3ccc(F)cc3)c2C2CCN(C(=O)OC(C)(C)C)CC2)c(OC)c1 | – | inconclusive: -3.02% [signal inhibitor]
37 | CCc1ccccc1NC(=O)N1CCc2c([nH]c3ccccc23)C1c1ccc(C)cc1 (configuration not stated) | – | inconclusive: 1.18% [signal inhibitor]
38 | COc1ccc(NC(=O)c2c(NC(=O)COc3ccccc3)sc3c2CCC(C)C3)cc1 (configuration not stated) | inconclusive: 10 µM [signal inhibitor, partial curve] | –
39 | O=C(Nc1ccccc1C(F)(F)F)c1ccc2oc(=O)c(S(=O)(=O)c3ccc(F)cc3)cc2c1 | inconclusive: 3.98 µM [rising, single point] | –
40 | O=C(NCCC1=CCCCC1)c1ccc2c(=O)n3nc(Nc4ccccc4)sc3nc2c1 | – | inconclusive: 0.557% [signal inhibitor]
41 | Cc1ccc(NC(=O)CSc2nnc3[nH]c(=O)cc(-c4ccccc4)n23)cc1Cl | – | inconclusive: 7.18% [signal inhibitor]
42 | Cc1ccc(C(=O)Nc2nc(COc3ccccc3)cs2)s1 | – | inconclusive: -2.25% [signal inhibitor]
43 | CCCn1c(=O)c(C(=O)NCc2ccccn2)c(O)c2ccccc21 | inconclusive: 31.6 µM [rising, single point] | –
44 | COc1ccc(-c2noc(CCC(=O)Nc3ccc(C(F)(F)F)cc3)n2)cc1 | – | inconclusive: 3.89% [signal inhibitor]
45 | CCCCOc1ccc(S(=O)(=O)Nc2ccc(-c3ccc(N4CCC(C)CC4)nn3)cc2)cc1 | inconclusive: 7.94 µM [signal inhibitor, partial curve] | –
46 | COc1ccc(S(=O)(=O)Nc2ccc(-c3cn4ccsc4n3)cc2)cc1C | – | inconclusive: 0.238% [signal inhibitor]

Row | SMILES | Potency | IkBa stabilization activation
47 | O=C(O)COc1cccc(-c2ocnc2-c2nc(-c3ccccc3)c(-c3ccccc3)o2)c1 | – | inconclusive: 1.82% [signal inhibitor]
48 | CCOc1ccc(CCNC(=O)C2CCN(C(=O)c3cc4sccc4n3CC)CC2)cc1OCC | – | inconclusive: 0.922% [signal inhibitor]
49 | C=CCc1c(C)nc2nc(SCC(=O)Nc3ccc(C)c(C)c3)nn2c1C | – | inconclusive: 7.25% [signal inhibitor]
50 | O=C(COc1ccccc1F)Nc1nnc(SCc2cc(=O)c3ccccc3[nH]2)s1 | – | inactive
51 | COCCCNC(=O)c1ccc(-n2c(-c3ccccc3)cc3c2CCC(C)C3)cc1 (configuration not stated) | – | inactive
52 | O=c1cc(-c2ccccc2O)oc2cc(O)cc(O)c12 | – | inactive: 6.26% [at 11.4 µM, scaled: untreated 0%, proteasome inhibitor 100%]
53 | Cc1cccc2nc(=S)n(C(=O)c3ccco3)n12 | – | inactive
54 | Cc1ccc(NC(=O)CSc2nncn3c2cc2sccc23)cc1F | – | inconclusive: 6.88% [signal inhibitor]
55 | CCC(=O)Nc1cccc(NC(=O)c2ccc3c(c2)OCCO3)c1 | – | inactive
56 | Cc1nn(-c2ccc(N3CCCC3)nn2)c(C)c1CCC(=O)Nc1ccccc1 | – | inconclusive: -1.04% [signal inhibitor]
57 | CCCCOC(=O)c1ccc(NC2=NS(=O)(=O)c3ccccc32)cc1 | – | inconclusive: 2.24% [signal inhibitor]
58 | COc1ccc(C(=O)Nc2nc(C)c(C(=O)N(C)C)s2)cc1OC | – | inactive
59 | Cc1ccc(-c2nc3n(n2)C(=O)CC(c2ccc(C)cc2)S3)cc1 (configuration not stated) | – | inconclusive: 1.4% [signal inhibitor]
60 | COc1cccc(-c2ccc3c(N)c(C(=O)c4ccc(F)cc4)sc3n2)c1 | – | inconclusive: 11.7% [signal inhibitor]
61 | Oc1ccccc1-c1cc(C(F)(F)C(F)F)[nH]n1 | – | inconclusive: 12.3% [signal inhibitor]
62 | Cc1cc(S(=O)(=O)NCCN(C)C)c(C)s1 | – | inactive
63 | CCC(=O)Nc1cccc(NC(=O)c2cc3ccccc3o2)c1 | inconclusive: 3.16 µM [signal inhibitor, full curve] | –
64 | NC(=O)c1ccc(-c2nc(-c3ccc4c(c3)OCO4)c(-c3ccccn3)[nH]2)cc1 | – | inconclusive: 0.0566% [signal inhibitor]
65 | COc1ccc(CNc2ncnc3c2cnn3-c2ccc(Cl)cc2)cc1 | – | inactive
66 | CCOC(=O)c1oc2ccccc2c1NC(=O)c1cc(OC)cc(OC)c1 | – | inactive
67 | CCC(Oc1ccccc1)C(=O)N1CCN(Cc2cc(=O)n3nc(-c4cccc(C)c4)sc3n2)CC1 (configuration not stated) | – | inactive
